Among all 45,000 compounds or so, about 65 (0.1%) were called active. Calls follow the shape of the dose curve; as a rule, active = well fitted activation curve with a large enough effect; inconclusive = small, poorly fitted or top-dose-only effect; inactive = no such curve, though single readings can be large or run the other way. The list shows a part of the results.
Target: Galactocerebrosidase (Homo sapiens) (UniProt P54803)
Experiment: A Novel Cell-Based Assay to Identify Small Molecules for B -Galactocerebrosidase; also: 0% is about no effect; nearly all actives have a fitted effect of over 65% in size
Conditions: 145M-Twi-hGALC-G270D cells (Twitcher mouse brain line with human GALC G270D), HMU-beta-Gal fluorescence, 48 h; series mostly up to 57.5 µM; activation: at the top concentration
Method in brief: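 Fluorescence readout: HMU-β-gal cleavage by mutant GALC (0.1 mM final, citrate/phosphate pH 5.2 with 1 mg/mL taurocholate), stopped with carbonate/bicarbonate plus Triton X-100. Cells: murine Twitcher 145M-Twi expressing human G270D GALC; qHTS for activators.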

Sequence of UniProt P54803 (P54803 whole entry, looked up): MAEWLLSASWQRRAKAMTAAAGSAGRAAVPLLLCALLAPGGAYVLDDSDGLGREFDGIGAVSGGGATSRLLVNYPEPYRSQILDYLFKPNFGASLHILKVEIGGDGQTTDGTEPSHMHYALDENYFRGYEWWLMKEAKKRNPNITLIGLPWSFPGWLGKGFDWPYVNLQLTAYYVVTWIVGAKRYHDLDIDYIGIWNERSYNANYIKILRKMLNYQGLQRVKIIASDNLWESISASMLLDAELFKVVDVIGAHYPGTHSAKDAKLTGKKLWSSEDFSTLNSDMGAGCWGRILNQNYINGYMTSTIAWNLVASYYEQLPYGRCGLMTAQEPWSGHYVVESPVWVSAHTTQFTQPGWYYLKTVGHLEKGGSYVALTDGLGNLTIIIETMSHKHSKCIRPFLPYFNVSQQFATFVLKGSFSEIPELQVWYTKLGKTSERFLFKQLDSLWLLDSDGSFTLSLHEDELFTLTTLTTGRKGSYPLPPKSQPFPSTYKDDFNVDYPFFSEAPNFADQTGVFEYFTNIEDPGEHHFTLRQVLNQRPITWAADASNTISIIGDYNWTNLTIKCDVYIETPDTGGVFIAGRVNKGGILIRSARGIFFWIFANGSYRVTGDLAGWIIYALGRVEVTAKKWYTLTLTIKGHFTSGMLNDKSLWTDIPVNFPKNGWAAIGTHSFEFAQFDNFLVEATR

activation, inactive:
Cc1cc(C)cc(NC(=O)C2CC(=O)N(c3ccccc3)C2)c1 (configuration not stated) -18.2%
CCCCCCCCCCOCC(O)CN (configuration not stated) -14.6%
Cc1ccc2c(c1)c1c(c(=O)n(Cc3ccccc3)c(=O)n1CC(=O)Nc1ccccc1F)n2C -11.5%
COC(=O)c1ccccc1NC(=O)CSc1nc(C)c(Cl)c(C)c1C#N -5.28%
Cc1ccc(-c2cc(C(=O)Oc3ccc(C#N)cc3)no2)cc1C -12.9%
CCc1ccc(NS(=O)(=O)c2[nH]ncc2C(=O)OC)cc1 -8.92%
Cc1ccccc1Cn1c(=O)n(-c2ccc(Cl)cc2)c(=O)c2c3c(sc21)CCCC3 -12.3%
COc1ccc(Cn2c(C(=O)O)c(CNCc3ccc(SC)cc3)c3ccc(OC)cc32)cc1 3.47%
CC(C)NC(=O)CN1C(=O)CCn2nc(-c3cn(C)c4ccccc34)cc21 -18.1%
Cc1ccc2nc(NC(=O)CSc3nccn3Cc3ccc(F)cc3)sc2c1 -39.9%
COCCNc1ccc2cc(S(=O)(=O)N3CCCCC3)ccc2n1 -6.98%
O=C(O)c1ccc(Cn2c(SCc3ccc(F)cc3)nc3ccncc32)cc1 -10.4%
CCC(C)NC(=O)c1sc2nc(C)c(C(=O)Nc3ccc(C)cc3C)c(-c3ccc(NC(C)=O)cc3)c2c1N (configuration not stated) -11.2%
COCCNC(=O)CCCn1c(SCC(=O)NCc2ccc(C)cc2)nc2c(sc3ccccc32)c1=O -15.7%
COc1cccc(N2CCN(C(=O)CN3CCSc4ccccc43)CC2)c1 -4.86%
COc1ccc(OC)c(S(=O)(=O)NCC(c2cccs2)S(=O)(=O)c2ccc(F)cc2)c1 (configuration not stated) -17%
Cc1cc(F)ccc1NC(=O)C1CCC(CNS(=O)(=O)c2ccc3c(c2)CCCC(=O)N3)CC1 (configuration not stated) -6.67%
Cc1ccccc1NC(=O)c1sc2nc3c(cc2c1N)CN(Cc1ccccc1)CC3 -3.91%
CCCS(=O)(=O)N1CCC(C(=O)NCCOC)CC1 7.44%
COc1ccc(-c2nn(-c3ccccc3)cc2C2NC(=O)NC(C)=C2C(=O)OC(C)C)cc1OC (configuration not stated) 15.9%
Cc1ccc(-c2noc(-c3nnn(-c4cccc(C(F)(F)F)c4)c3N)n2)cc1 -9.97%
O=C(Nc1cc2c(cc1C(=O)c1ccccc1Br)OCCO2)c1cccc(Cl)c1 -25.6%
Cc1ccc(-n2nc(C)c3c(C)cc(=O)n(CC(=O)Nc4cccc(C)c4C)c32)cc1 2.84%
O=C(c1cc2c(=O)oc3ccccc3c2s1)N1CCN(c2ccccc2)CC1 -3%
COc1ccc2c(c1)c1c(c(=O)n(-c3cccc(C)c3)c(=O)n1Cc1cccc(Cl)c1)n2C 3.58%
COc1ccccc1CNc1ncnc2c1cnn2-c1ccc(C)cc1 -8.16%
Cc1nc(-n2nc(C)c(CCC(C)C)c2C)sc1C(=O)Nc1ccc(Cl)cc1 -6.31%
COc1ccc(N2C(=O)CSC23C(=O)N(Cc2cccc(F)c2)c2ccccc23)cc1Cl (configuration not stated) -31.5%
O=S(=O)(c1ccc2nc(N3CCN(c4ccccc4F)CC3)ccc2c1)N1CCCCC1 -2.82%
CCOc1ccc(C(=O)NCC(c2ccc3c(c2)OCO3)N2CCN(c3ccc(F)cc3)CC2)cc1 (configuration not stated) -16.3%
CC(=O)Nc1ccc(NS(=O)(=O)c2ccc3[nH]c4c(c3c2)CCCCC4)cc1 -5.21%
COc1ccc(CCN2C(=O)N(c3ccc(F)cc3)C(=O)C2CC(=O)Nc2ccc(OC)cc2)cc1 (configuration not stated) -14.2%
CCc1ccccc1NC(=O)N1CCC2(CC1)Oc1ccccc1C(=O)N2Cc1ccccc1F -4.71%
CCCC(CCC)C(=O)Nc1cccc(-c2nc3cccnc3s2)c1 -4.19%
Cc1ccc(-n2nc3c(N4CCC(C(=O)NCCc5ccccc5C)CC4)nnc(C)c3c2C)cc1 -14.8%
CCCCC1C(=O)N(c2ccccc2)N(c2ccccc2)C1=O -9.25%
COc1ccc(Cl)cc1NC(=O)CCN1C(=O)c2ccccc2Sc2ncccc21 -12.2%
CCOC(=O)c1ccccc1NC(=O)CSc1cc(C)[nH]c(=O)n1 -5.1%
CC(=O)N1CCc2cc(S(=O)(=O)NC(CC(C)C)C(=O)NCCc3ccccc3)ccc21 (configuration not stated) -9.74%
CC(C)(C)c1cc(C(C)(C)C)c2oc(=O)c(-c3nc4ccc(C(=O)O)cc4[nH]3)cc2c1 -15.9%
COc1cc(OC)c(NC(=O)N2CCN3CCCCC3C2)cc1Cl (configuration not stated) 0.936%
Cc1ccc(Nc2nc3ccccc3c3nnc(C)n23)cc1Cl 3.65%
Cc1cc(C)c2c(=O)cc(CSc3nnc(-c4ccccc4)n3C)[nH]c2c1 -6.23%
COc1cc(-c2nnc(SCC(=O)Oc3ccccc3)o2)cc(OC)c1OC -9.12%
COc1ccc(OC)c(Nc2ncc3c(n2)CCN(Cc2cc(OC)c(OC)c(OC)c2)C3)c1 -19.7%
CC(C)C(=O)N1c2nc(C(C)C)nn2C2(CCCCC2)[C@@H]2CCCC[C@@H]21 -18.8%
CC(=O)c1ccc(NC(=O)CSc2nnc(NC(=O)Nc3ccccc3)s2)cc1 -6.21%
COc1ccc(OC)c(NC(=O)Cc2c(C)n(C(=O)c3ccc(Cl)cc3)c3ccc(OC)cc23)c1 -4.28%
COc1ccc(Cl)cc1NC(=O)c1ncn(-c2ccccc2)n1 -25.2%
CCOC(=O)c1cnc2ccc(C(=O)OC)cc2c1Nc1ccc(N2CCOCC2)cc1 -5.14%
CCc1ccccc1Nc1ncnc2c1cnn2-c1ccc(Cl)cc1 -31%
O=C(CO)[C@@H](O)[C@H](O)[C@@H](O)CO -18.4%
CCOc1ccc(CCNC(=O)c2ccc(CS(=O)(=O)c3ccccc3C)o2)cc1OCC 1.68%
COC(=O)c1ccc(Cn2c(SCC(=O)NCc3ccccc3)nc3ccccc32)cc1 -20.5%
CSCCC(NS(=O)(=O)c1cccs1)C(=O)Nc1ccc(C)c(Cl)c1 (configuration not stated) -16.6%
CCc1ccccc1NC(=O)c1sc2nc3n(c(=O)c2c1C)CCC3 -17.5%
COc1cc(CN(C(=O)c2ccc(OC(C)C)cc2)C2CCS(=O)(=O)C2)cc(OC)c1OC (configuration not stated) -22.3%
CCN1CCOC(=O)C1CC(=O)Nc1ccc(C(C)=O)cc1 (configuration not stated) -2.23%
CC(=O)c1cccc(NC(=O)CN2C(=O)c3cccnc3Sc3ccccc32)c1 -6.11%
CCc1ccc(NC(=O)Cn2c(=O)n(-c3ccccc3)c(=O)c3ccc(C(=O)NCc4ccc5c(c4)OCO5)cc32)cc1 9.74%
Cc1ccc(C)c(Cn2c(=O)n(Cc3ccco3)c(=O)c3oc4ccccc4c32)c1 1.92%
N#CC1(c2ccc(F)cc2)CCC(=O)CC1 -9.87%
CN(C)c1cc2c(cc1NC(=O)c1ccc(F)cc1)n(C)c(=O)n2C 5.34%
CCOc1ccc(CNC(=O)c2ccc(NC(=O)N3CCSc4ncccc43)cc2)cc1OC -8.8%
COc1cccc(Cn2c(C)c(CNCc3ccccc3Cl)c(C(=O)O)c2C)c1 -12.3%
Cc1ccccc1OCc1ccc(-c2nc(C#N)c(N3CCN(c4ccccc4)CC3)o2)o1 -23.6%
O=C(NCCCc1nc2ccccc2n1Cc1ccccc1)C1CCCCC1 -6.14%
Cc1cccc(-c2nnn3c2nc(NCc2ccccc2)c2ccccc23)c1 -7.56%
CNC(=O)C1CCN(Cc2cc3ccccc3n2Cc2cccc(C)c2)CC1 -8.85%
CC(C)CCNC(=O)C1CCN(S(=O)(=O)c2cccc3nsnc23)CC1 -5.36%
CCc1ccc(-c2cc(C)no2)cc1S(=O)(=O)Nc1ccc(C)cn1 -0.719%
COc1ccc(NC(=O)CCS(=O)(=O)c2nc(-c3ccc4c(c3)OCO4)cc(C(F)(F)F)n2)c(OC)c1 -11.8%
O=C(O)c1ccc2c(c1)N(Cc1ccc(F)cc1Cl)C(=O)c1ccccc1S2 -3.58%
COc1ccc(CCNC(=O)c2cc(S(=O)(=O)N3CCCC(C)C3)cn2C)cc1OC (configuration not stated) -6.15%
CC(C)N(Cc1ccccc1)C(=O)CN1C(=O)COc2ccc(S(=O)(=O)N3CCCCCC3)cc21 -2.75%
CCN(C(=O)c1cnc(N2CCOCC2)c2ccccc12)c1cc(C)ccc1C -6.48%
CC(CNC(=O)CCCn1c(=O)c2cccn2c2ccccc21)c1ccccc1 (configuration not stated) -15.2%
O=C(OCc1cc(=O)n2nc(-c3cccs3)sc2n1)c1ccccc1Br -8.54%
CC(=O)Nc1ccc(NC(=O)CCC(=O)c2ccc(C)cc2)cc1 -18%
COc1cccc(CNc2nc3c(-c4cccc(C)c4)nnn3c3ccccc23)c1 -11%
CCOc1ccc(-c2nnc(SCC(=O)NCCc3ccccc3)nc2-c2ccc(OCC)cc2)cc1 -15.1%
Cc1cc(NC(=O)C(C)(C)Oc2ccc(Cl)cc2)cc(-c2nc3ncccc3o2)c1O 10.8%
CCOc1ccccc1NC(=O)c1ccc2c(Cl)c3c(nc2c1)CCCC3 -16.3%
CCN(CC)c1nc(-c2ccccc2Cl)c2cc(Br)ccc2n1 -17%
O=C(C1CC1)N1CCN(c2nc3c(F)cc(F)cc3s2)CC1 -15.6%
Cc1nn(-c2ccccc2)c2nc(C3CC3)cc(C(=O)NCc3ccccc3Cl)c12 -9.01%
Cc1cccc(CNC(=O)c2sc3ncnc(N(C)C4CCCCC4)c3c2C)c1 -5.36%
CCc1ccc(NC(=O)c2sc3nc(C)c(Cl)c(C)c3c2NC(=O)c2ccccc2)cc1 -3.57%
COc1ccc(C)cc1NC(=O)CCNS(=O)(=O)c1cccc2nonc12 -24.5%
Cc1cc(Cl)ccc1OCC(=O)N(Cc1ccc(N(C)C)cc1)CC1CCCO1 (configuration not stated) 0.539%
CC(C)Nc1ccc(-c2nc(-c3ccccn3)no2)cc1[N+](=O)[O-] -2.94%
CCCn1c2ccccc2c2cnn(CC(=O)Nc3ccc(C)cc3Br)c(=O)c21 -9.98%
Cc1cc2ccccc2n2c(SCC(=O)Nc3cccc(C(F)(F)F)c3)nnc12 3.33%
CC(=O)c1cccc(NC(=O)c2c(C)nn(-c3ccc(F)cc3)c2-n2cccc2)c1 1.47%
O=C(CSc1ncc2c(n1)-c1cc(Cl)ccc1N(Cc1ccccc1F)S2(=O)=O)Nc1cccc(C(F)(F)F)c1 -7.75%
CCCCCN1C(C(=O)c2ccccc2)=C(NC(C)=O)c2ccccc2S1(=O)=O -10.9%
COC(=O)c1cc(NC(=O)c2ccc3c(c2)N(Cc2cccc(Cl)c2)C(=O)c2ccccc2S3=O)cc(C(=O)OC)c1 (configuration not stated) -11.3%

Source: PubChem BioAssay AID1159614 (National Center for Advancing Translational Sciences (NCATS), 2016)
